Measurements: PubChem BioAssay AID1030 (National Center for Advancing Translational Sciences (NCATS), 2008)
Hit rate of the full screen: of about 220,000 compounds, about 16,000 (7.3%) were called active. Inconclusive means that the source gave no clear call. Such entries were picked first, then a sample of the others. The call rests on the fitted dose curve; in most records, active means well fitted inhibition curve with a large enough effect (not every such curve was filed as active); inconclusive means small, poorly fitted or top-dose-only effect, or another doubt; inactive means no such curve, though single readings can be large or run the other way. Where the call is inconclusive, the potency comes from a doubtful curve fit.

Biological target: Aldehyde dehydrogenase 1A1 (Homo sapiens) (UniProt P00352)
Assay: qHTS Assay for Inhibitors of Aldehyde Dehydrogenase 1 (ALDH1A1);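 on activity, negative = inhibition: plate controls were no enzyme wells and a reference inhibitor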
Settings: Purified ALDH1A1, NADH fluorescence, propionaldehyde substrate; series mostly up to 75.3 µM; activity, negative = inhibition: at the top concentration
Potency means the concentration at half of the fitted maximal effect; tags describe the fitted curve by direction and shape.

UniProt P00352, sequence (P00352 whole entry, looked up): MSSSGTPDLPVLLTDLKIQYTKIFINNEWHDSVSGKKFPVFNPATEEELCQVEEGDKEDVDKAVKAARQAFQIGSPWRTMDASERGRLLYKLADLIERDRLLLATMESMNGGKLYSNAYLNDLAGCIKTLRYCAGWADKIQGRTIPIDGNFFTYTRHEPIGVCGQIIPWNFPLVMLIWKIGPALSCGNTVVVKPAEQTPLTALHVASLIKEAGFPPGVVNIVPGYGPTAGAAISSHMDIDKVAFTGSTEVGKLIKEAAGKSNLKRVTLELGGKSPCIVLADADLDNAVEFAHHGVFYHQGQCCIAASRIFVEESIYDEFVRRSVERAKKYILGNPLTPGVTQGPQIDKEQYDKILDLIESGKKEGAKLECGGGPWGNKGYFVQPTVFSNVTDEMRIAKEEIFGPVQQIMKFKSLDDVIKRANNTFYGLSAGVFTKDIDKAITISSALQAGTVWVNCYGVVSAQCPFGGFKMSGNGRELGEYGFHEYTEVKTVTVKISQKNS

Potency, inconclusive:
O=C(NC(=S)Nn1cnc2c(cnn2-c2ccccc2)c1=O)c1ccc(Cl)cc1 35.5 µM [inhibitor, single point]
O=C(NC(Cc1ccccc1)C(=O)O)/C(=C/c1ccc([N+](=O)[O-])cc1)NC(=O)c1ccccc1Br (stereo not drawn) 31.6 µM [inhibitor, single point]
COc1ccccc1CNC(=O)[C@@H]1CCCN1C(=O)C1CCN(S(=O)(=O)c2ccc(C)cc2)CC1 28.2 µM [inhibitor, partial curve, poor fit]
Cc1ccn2cc(-c3cc4ccccc4oc3=O)nc2c1 39.8 µM [inhibitor, single point]
Cc1cccc(NC(=O)CSc2nc3c(oc4ccccc43)c(=O)n2-c2ccccc2)c1 10 µM [inhibitor, partial curve]
Cc1noc(/C=C/N(C)C)c1S(=O)(=O)N1CCCC(C(=O)NCc2ccc(Cl)cc2)C1 (stereo not drawn) 6.31 µM [inhibitor, partial curve, poor fit]
C/C=C(/C)C(=O)O[C@H]1[C@@H](O)c2c(ccc3ccc(=O)oc23)OC1(C)C 39.8 µM [inhibitor, single point]
CC1Cc2nc(SCC(=O)NCC3CCCO3)n(Cc3ccccc3)c(=O)c2S1 (stereo not drawn) 39.8 µM [inhibitor, single point]
Cc1ccccc1C1CC(=O)NC2=C1C(=O)CCC2 (stereo not drawn) 39.8 µM [inhibitor, single point]
O=C(CN1CCN(Cc2ccccc2)CC1)N1CCCCCC1 12.6 µM [inhibitor, partial curve]
COc1cc(C2Nc3ccccc3C(=O)N2c2ccc(Cl)cc2)c(Cl)cc1OCC(=O)O (stereo not drawn) 25.1 µM [inhibitor, partial curve]
COc1ccc(-n2c(CN3CCN(c4ccccn4)CC3)nc3ccc([N+](=O)[O-])cc3c2=O)c(OC)c1 39.8 µM [inhibitor, single point]

Potency, active:
O=C1CC(N2CCN(c3ccccc3Cl)CC2)C(=O)N1c1ccccc1 (stereo not drawn) 25.1 µM
CC(=O)N1CCN(C(=S)c2ccc(N(C)C)cc2)CC1 8.91 µM

activity, negative = inhibition, inactive:
Cc1c(NC(=O)COC(=O)c2ccc[nH]c2=O)c(=O)n(-c2ccccc2)n1C -4.98%
CCN1/C(=C/c2ccc3cc(C)ccc3[n+]2CC)Sc2cc(C)c(C)cc21 -6.13%
CC1CC1C(=O)OCC(=O)NCc1ccc(Cl)cc1 (stereo not drawn) 6.15%
COc1ccc(/C=C/C(=O)Nc2cccc(N3CCOCC3)c2)cc1OC -2.5%
